PMC12040169 (PLOS Biology, 2025)
The list shows a part of the results.

Tested on: T1, C. trachomatis L2/434/Bu expressing GFP (CTL2-GFP)
T1 construct: L2/434/Bu GFP intracellular growth in HeLa cells
Set-up: species or system HeLa; C. trachomatis total inclusion area by high-content imaging, normalised to DMSO
Settings: total inclusion area; 28.5 h, 10 µM; inhibitor
Outline: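 Post-fluorescence-read fixation, DNA staining with Hoechst and high-content imaging; GFP inclusion area and number per well, and nuclei counts, used as proxies for bacterial growth and host viability.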

| SMILES | % of control remaining |
| --- | --- |
| O=C(O)CSc1nc(Nc2ccccc2)nc(N2CCOCC2)n1 [CBK269023] | 90.005 |
| CCNC(=O)C1(Cc2ccccc2-c2ccccc2)CCN(C(=O)c2cccc(F)c2)CC1 [CBK285689] | 109.143 |
| CC(C)(C)c1cc(CCC(=O)NNC(=O)c2ccccc2Cl)cc(C(C)(C)C)c1O [CBK268391] | 83.4474 |
| Cn1ccc(CN2CCOC(c3nc(C(C)(C)C)cs3)C2)cc1=O (centres unmarked) [CBK305771] | 43.589 |
| C#CCN(C)CC[C@@H]1CC[C@H](O)[C@@H](C(=O)N2CCOCC2)O1 [CBK288723] | 102.927 |
| CCOc1ccccc1NC(=O)CN(C)S(=O)(=O)c1ccc2ccccc2c1 [CBK266874] | 106.027 |
| O=C(Nc1ccc(S(=O)(=O)N2CCCC2)cc1)c1ccc(COc2ccc3c(c2)CCC3)o1 [CBK265847] | 70.5705 |
| O=C(O)C1CCCCC1C(=O)NCCN1CCCCC1 (centres unmarked) [CBK287031] | 64.0365 |
| O=C(CC1(O)C(=O)N(Cc2ccc3c(c2)OCO3)c2ccccc21)c1ccccn1 (centres unmarked) [CBK269725] | 92.9071 |
| Cc1cccc(C)c1OCc1nnc(SCc2ccc([N+](=O)[O-])cc2)n1C [CBK269737] | 93.1605 |
| CCCCN(CCCC)S(=O)(=O)c1nc2nc(C)cc(C)n2n1 [CBK022076] | 64.9104 |
| O=C(NCCN1CCN(C(=O)Nc2ccccc2)CC1)C1CCCC1 [CBK305915] | 76.7466 |
| CS(=O)(=O)c1ccc(-n2ncc(-c3cccc(C(F)(F)F)c3)n2)cc1 [CBK112672] | 69.5434 |
| O=C(O)CCSCc1ccc([N+](=O)[O-])cc1 [CBK262359] | 92.6887 |
| Cc1cnn(CC(=O)N2CC[C@H]3NC(=O)c4ccccc4OCCCCC[C@H]3C2)c1 [CBK292010] | 79.1054 |
| Cc1cccc(NS(=O)(=O)c2ccc(OCC(=O)Nc3ccc4c(c3)OCCO4)cc2)c1 [CBK268068] | 86.5336 |
| O=C(NCc1ccncc1)c1nn(-c2ncccn2)c2ccccc12 [CBK048498] | 111.673 |
| CN(C)CCNC1CS(=O)(=O)CC1O (centres unmarked) [CBK059025] | 47.1004 |
| COc1nccc(N2CCC3(CCCN(CC4CCC4)C3=O)C2)c1C#N (centres unmarked) [CBK306861] | 93.5512 |
| NS(=O)(=O)c1ccc(NC(=O)CN2C(=O)S/C(=C\C=C\c3ccccc3)C2=O)cc1 [CBK264835] | 90.1478 |
| Cc1cccc(CNC(=O)CC2CCN(Cc3cccc(C(F)(F)F)c3)CC2)n1 [CBK285950] | 86.3889 |
| CC(C)(N)CN(Cc1ccccc1)C(=O)/C=C/c1ccccc1 [CBK013891T] | 64.5717 |
| CCN(CC1CCN(c2ccccn2)CC1)C(=O)C1(C#N)CCCC1 [CBK304096] | 51.2263 |
| O=S(=O)(Nc1ccc(-c2nnn[nH]2)cc1)c1c(Cl)cc(C(F)(F)F)cc1Cl [CBK155570] | 89.2026 |
| CC(C)Nc1nc2cc(Cl)c(Cl)cc2nc1SCCC(=O)O [CBK107860] | 92.2666 |

| SMILES | % of control remaining |
| --- | --- |
| C(#Cc1ccc(-c2nc(-c3ccc(Sc4ccccc4)cc3)c(-c3ccc(Sc4ccccc4)cc3)[nH]2)cc1)c1ccccc1 [CBK261954] | 53.4307 |
| CCC12CN3CCN(CC(C3)/C1=N\O)C2 [CBK263022] | 108.141 |
| Cn1ncc(N2CCN(C(=O)CCN3CCCCCC3=O)CC2)cc1=O [CBK306508] | 61.0353 |
| c1cncc(COc2nccnc2OC2CCN(CCOc3cccnc3)CC2)c1 [CBK083181] | 103.766 |
| COc1ccc(Cn2nc(NC(=O)c3cnc4ccccc4n3)c3ccccc32)cc1 [CBK048343] | 99.3262 |
| CC(Nc1n[nH]c(=O)[nH]c1=O)C(=O)N/N=C/c1ccccc1O (centres unmarked) [CBK263526] | 118.815 |
| CC1(C(=O)O)COC(c2ccc([N+](=O)[O-])cc2)OC1 (centres unmarked) [CBK286737] | 138.814 |
| Cc1ccccc1-n1ccn(C(=O)CCCOc2ccc(Cl)cc2)c1=O [CBK106573] | 82.3485 |
| O=C(c1c[nH]c(-c2ncn[nH]2)c1)c1ccc(Cl)cc1Cl [CBK008334] | 91.5696 |
| Cc1ccnc(NCn2nnc3ccccc32)c1 [CBK261116] | 104.144 |
| O=C(NCc1cccnc1)N1CCCCC1CO (centres unmarked) [CBK156169] | 86.3705 |
| Cc1nnc(CN(C)C2CCN(CCc3cccs3)C2)n1C (centres unmarked) [CBK305126] | 53.6817 |
| Cc1nnc2nc(-c3ccc(Cl)cc3Cl)[nH]n12 [CBK027731] | 61.3562 |
| CSc1nc(NN2C(=O)c3ccccc3C2=O)c2c3c(sc2n1)COC(C)(C)C3 [CBK268758] | 88.7831 |
| CCC(=O)N1CCC(c2cc(-c3cccc(F)c3)n(C)n2)CC1 [CBK282096] | 68.0869 |
| CN(C)c1cccc(Nc2cc(-c3ccc(CCC(=O)O)cc3)ncn2)c1 [CBK091010] | 131.245 |
| CC(CN1CCCCC1)OC(=O)C(c1ccccc1)c1ccccc1 (centres unmarked) [CBK265237C] | 84.6248 |
| O=[N+]([O-])c1ccc(NCCCNS(=O)(=O)c2ccc(Cl)cc2)c(Cl)c1 [CBK262543] | 95.5625 |
| Cc1c(C(N)=O)sc2ncn(CC(=O)NCCc3ccccc3)c(=O)c12 [CBK268514] | 136.001 |
| CC1CCc2nc(NC(=O)c3ccccc3)sc2C1 (centres unmarked) [CBK287298] | 92.9596 |
| COc1ccc(CCNC(=S)N2CCN(S(C)(=O)=O)CC2)cc1OC [CBK266917] | 85.9125 |
| CC1CCCN(c2nc3cc(C(=O)O)sc3[nH]2)C1 (centres unmarked) [CBK287159] | 114.681 |
| Cn1nccc1C(=O)N1CCCC(c2cc3ncccc3[nH]2)C1 (centres unmarked) [CBK283413] | 98.0465 |
| Cc1cc(-c2nc3ncccc3o2)ccc1NC(=O)c1ccc2c(c1)OCCO2 [CBK270104] | 110.135 |
| Cn1nc(-c2ccc(S(=O)(=O)NCCN3CCNC3=O)s2)cc1C(F)(F)F [CBK062610] | 100.689 |
